For six substances, binding results are on record in article PMC4460025.

Sequences of proteins named here, by UniProt entry; tags and fusion partners are left off. A change or cut given only in a name is not applied to a line headed by its entry.
UniProt Q5TH69: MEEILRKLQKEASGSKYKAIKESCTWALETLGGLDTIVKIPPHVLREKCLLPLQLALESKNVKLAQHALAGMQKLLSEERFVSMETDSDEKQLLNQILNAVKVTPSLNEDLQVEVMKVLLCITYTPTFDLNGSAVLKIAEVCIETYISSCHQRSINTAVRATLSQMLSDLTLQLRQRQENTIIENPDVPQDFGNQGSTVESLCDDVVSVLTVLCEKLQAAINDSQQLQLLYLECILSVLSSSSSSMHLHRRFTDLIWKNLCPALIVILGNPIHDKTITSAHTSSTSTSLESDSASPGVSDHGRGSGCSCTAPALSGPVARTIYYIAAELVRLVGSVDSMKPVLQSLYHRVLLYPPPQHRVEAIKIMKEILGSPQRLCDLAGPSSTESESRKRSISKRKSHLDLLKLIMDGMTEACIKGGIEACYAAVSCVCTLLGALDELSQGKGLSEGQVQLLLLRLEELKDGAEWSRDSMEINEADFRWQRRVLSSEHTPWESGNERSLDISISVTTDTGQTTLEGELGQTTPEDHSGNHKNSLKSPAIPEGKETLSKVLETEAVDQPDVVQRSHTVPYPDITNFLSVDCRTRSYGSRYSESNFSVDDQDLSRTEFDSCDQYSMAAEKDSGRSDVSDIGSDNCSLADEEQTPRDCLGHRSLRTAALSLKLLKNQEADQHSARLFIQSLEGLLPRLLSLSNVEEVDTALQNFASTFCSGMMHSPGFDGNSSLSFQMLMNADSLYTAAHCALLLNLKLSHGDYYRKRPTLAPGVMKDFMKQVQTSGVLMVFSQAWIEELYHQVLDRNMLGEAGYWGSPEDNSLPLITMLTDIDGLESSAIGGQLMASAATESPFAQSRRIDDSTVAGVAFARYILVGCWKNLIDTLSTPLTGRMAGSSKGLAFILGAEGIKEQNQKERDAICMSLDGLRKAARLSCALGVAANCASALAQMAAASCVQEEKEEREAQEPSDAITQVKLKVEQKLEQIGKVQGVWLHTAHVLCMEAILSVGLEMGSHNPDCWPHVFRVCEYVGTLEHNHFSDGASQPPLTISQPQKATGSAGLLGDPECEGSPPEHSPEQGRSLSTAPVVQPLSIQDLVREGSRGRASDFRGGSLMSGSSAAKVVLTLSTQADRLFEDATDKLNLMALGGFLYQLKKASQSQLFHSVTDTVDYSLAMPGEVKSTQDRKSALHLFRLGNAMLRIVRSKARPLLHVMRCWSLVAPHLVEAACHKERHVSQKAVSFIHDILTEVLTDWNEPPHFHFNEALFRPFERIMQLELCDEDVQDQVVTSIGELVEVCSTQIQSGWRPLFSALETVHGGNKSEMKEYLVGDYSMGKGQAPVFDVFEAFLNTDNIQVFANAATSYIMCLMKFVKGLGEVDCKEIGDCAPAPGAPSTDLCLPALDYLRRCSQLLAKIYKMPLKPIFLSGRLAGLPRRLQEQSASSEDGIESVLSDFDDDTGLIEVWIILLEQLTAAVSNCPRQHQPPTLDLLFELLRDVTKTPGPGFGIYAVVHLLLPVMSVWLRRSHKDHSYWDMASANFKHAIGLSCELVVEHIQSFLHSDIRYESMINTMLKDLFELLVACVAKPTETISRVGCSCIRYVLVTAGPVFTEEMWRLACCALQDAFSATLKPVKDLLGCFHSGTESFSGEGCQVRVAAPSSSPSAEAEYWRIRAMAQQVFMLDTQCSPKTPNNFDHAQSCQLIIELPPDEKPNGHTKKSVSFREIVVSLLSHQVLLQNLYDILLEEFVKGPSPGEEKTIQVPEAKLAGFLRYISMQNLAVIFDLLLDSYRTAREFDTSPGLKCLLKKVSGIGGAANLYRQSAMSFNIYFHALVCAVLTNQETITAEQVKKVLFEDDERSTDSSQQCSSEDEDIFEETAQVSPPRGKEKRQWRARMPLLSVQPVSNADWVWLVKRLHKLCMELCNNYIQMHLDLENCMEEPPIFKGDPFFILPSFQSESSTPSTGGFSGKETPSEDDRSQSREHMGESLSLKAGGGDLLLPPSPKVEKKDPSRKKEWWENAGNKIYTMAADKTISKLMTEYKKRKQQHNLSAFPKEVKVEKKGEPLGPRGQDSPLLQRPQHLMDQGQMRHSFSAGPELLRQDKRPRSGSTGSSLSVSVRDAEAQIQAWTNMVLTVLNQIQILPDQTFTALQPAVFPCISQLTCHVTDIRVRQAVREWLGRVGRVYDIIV
UniProt P52294: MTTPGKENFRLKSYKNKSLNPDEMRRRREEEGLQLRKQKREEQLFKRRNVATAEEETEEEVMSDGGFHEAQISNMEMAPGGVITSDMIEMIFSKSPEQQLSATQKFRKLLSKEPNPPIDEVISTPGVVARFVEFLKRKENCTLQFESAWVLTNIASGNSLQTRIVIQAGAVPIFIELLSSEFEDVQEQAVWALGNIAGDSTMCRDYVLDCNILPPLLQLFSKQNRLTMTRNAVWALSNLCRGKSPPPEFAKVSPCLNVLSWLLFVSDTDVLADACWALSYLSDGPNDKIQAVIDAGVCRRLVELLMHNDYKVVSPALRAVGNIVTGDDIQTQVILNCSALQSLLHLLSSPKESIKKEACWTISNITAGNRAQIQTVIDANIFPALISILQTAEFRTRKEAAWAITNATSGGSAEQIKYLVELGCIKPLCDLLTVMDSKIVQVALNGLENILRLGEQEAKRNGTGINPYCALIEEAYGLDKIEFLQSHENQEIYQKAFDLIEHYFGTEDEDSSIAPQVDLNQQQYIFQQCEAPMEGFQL
UniProt O15131: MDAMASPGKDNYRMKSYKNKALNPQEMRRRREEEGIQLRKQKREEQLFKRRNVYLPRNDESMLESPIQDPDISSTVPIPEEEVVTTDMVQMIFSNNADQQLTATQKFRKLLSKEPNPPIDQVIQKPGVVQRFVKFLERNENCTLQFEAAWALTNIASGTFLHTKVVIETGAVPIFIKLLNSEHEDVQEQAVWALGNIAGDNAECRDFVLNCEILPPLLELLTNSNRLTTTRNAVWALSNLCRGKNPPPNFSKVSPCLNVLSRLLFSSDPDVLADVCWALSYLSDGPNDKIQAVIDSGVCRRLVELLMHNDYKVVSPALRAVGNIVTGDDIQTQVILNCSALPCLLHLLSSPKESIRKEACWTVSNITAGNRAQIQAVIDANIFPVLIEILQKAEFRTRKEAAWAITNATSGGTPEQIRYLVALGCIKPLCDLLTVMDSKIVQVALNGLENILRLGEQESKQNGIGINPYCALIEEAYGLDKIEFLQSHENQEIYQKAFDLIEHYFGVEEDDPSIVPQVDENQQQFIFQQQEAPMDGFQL
UniProt Q99623: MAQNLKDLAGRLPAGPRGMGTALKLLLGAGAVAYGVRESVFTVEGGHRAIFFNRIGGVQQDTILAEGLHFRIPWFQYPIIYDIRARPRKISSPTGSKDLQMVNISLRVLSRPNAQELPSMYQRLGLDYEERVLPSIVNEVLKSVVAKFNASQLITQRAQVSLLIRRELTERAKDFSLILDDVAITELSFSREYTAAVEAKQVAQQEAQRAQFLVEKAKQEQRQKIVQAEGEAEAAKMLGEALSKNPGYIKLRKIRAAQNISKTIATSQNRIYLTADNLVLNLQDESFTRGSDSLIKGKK
UniProt P03372: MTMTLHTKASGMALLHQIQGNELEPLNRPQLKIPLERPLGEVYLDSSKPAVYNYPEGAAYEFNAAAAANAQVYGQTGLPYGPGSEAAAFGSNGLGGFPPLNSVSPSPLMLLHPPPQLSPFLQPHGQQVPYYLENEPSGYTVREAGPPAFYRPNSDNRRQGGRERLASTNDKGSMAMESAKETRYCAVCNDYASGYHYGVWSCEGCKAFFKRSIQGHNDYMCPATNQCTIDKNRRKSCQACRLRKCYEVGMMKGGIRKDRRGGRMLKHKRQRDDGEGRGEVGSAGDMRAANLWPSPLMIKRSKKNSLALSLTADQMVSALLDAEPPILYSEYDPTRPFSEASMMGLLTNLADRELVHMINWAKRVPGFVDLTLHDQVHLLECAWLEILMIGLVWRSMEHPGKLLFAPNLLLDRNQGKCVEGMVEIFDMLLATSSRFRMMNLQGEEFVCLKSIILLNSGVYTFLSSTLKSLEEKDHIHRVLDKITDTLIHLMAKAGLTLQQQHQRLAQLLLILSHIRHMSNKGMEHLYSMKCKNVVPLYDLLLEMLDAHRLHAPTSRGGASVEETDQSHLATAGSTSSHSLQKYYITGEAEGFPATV

These are yes or no findings as the source states them, for the method shown. In cells and extracts the contact can be indirect. Some results given as binding are weak or reduced against the parent protein; the word gives no strength.

The target in one experiment is FLAG-BIG3 (UniProt Q5TH69). As to the kind of experiment: co-IP; HEK293T cells co-transfected with partial HA-PHB2 constructs and FLAG-BIG3; 48 h; lysates immunoprecipitated with anti-FLAG antibody; immunoblot. (In general: Immunoblotting shows a protein as a band on a membrane.)
In experiment [1] the target is FLAG-tagged KPNA1 (human) (UniProt P52294). The experiment can be described thus: co-IP; COS-7 cells co-transfected with HA-PHB2 constructs and FLAG-KPNAs; 48 h; 0.1% NP-40 lysis buffer; anti-FLAG M2 agarose 12 h at 4°C, eluted with 3x FLAG-peptide; immunoblot with anti-HA.
Experiment [2] has as its target FLAG-tagged KPNA5 (human) (UniProt O15131). The description is as above.
Experiment [3] addresses FLAG-tagged KPNA6 (human) (UniProt O60684). The experiment is described as above.
For experiment [4], the target named is endogenous PHB2 (human (endogenous in MCF-7)) (UniProt Q99623). As to the kind of experiment: co-IP; MCF-7 cells treated with siKPNAs followed by E2 ± ERAP for 24 h; lysates immunoprecipitated with anti-PHB2 antibody; immunoblot with antibodies against each KPNA.
The target in experiment [5] is endogenous estrogen receptor alpha (ERα) (human (endogenous in MCF-7)) (UniProt P03372). As to the kind of experiment: co-IP; MCF-7 cytoplasmic and nuclear fractions immunoprecipitated with anti-ERα antibody; cells treated with E2 ± ERAP (1, 6, 24 h), with siBIG3 and/or siKPNAs; immunoblot of endogenous proteins.
For experiment [6], the target named is endogenous PHB2 (human (endogenous in MCF-7)) (UniProt Q99623). As to the kind of experiment: co-IP; MCF-7 cells treated with 10 nM E2 ± 10 μM ERAP for 1, 6 and 24 h, separated into cytoplasmic and nuclear fractions; each fraction immunoprecipitated with anti-PHB2 antibody; immunoblot of endogenous proteins.

As for “HA-PHB2 (190–299) (from UniProt Q99623 190-299) (domain or fragment)”, the binding result (in the experiment with FLAG-BIG3; in experiment [1]; in experiment [2]; in experiment [3]) was “no binding” each time.

As for “endogenous KPNA6 (from UniProt O60684 1-536)”, the binding result in experiment [4] is “binds”; in experiment [5], “no binding”; in experiment [6], “binds”.

For “endogenous KPNA5 (from UniProt O15131 1-539)”, the binding entry in experiment [4] is “binds”; in experiment [5], “no binding”; in experiment [6], “binds”.

With “endogenous KPNA1 (from UniProt P52294 1-538)”, the binding entry in experiment [4] and in experiment [6] was “binds” each time.

For “endogenous BIG3 (from UniProt Q5TH69 1-2177)”, the binding result in experiment [6] is given as “binds”.

“HA-PHB2 (1–189) (from UniProt Q99623 1-189) (domain or fragment)”: the binding entry (with FLAG-BIG3; in experiment [1]; in experiment [2]; in experiment [3]) was “binds” each time.
